First the molecules themselves.
B1: CPEB3 Ribozyme (parent)
chain: UAACAGGGGGCCACAGCAGAAGCGUUCACGUCGCAGCCCCUGUCAGAUUCUGGUGAAUCUGCGAAUUCUGCUGUAUAUCUC

Read counts are not given, so values of variants with three or more changes are uncertain.

This data set covers variants of B1. Put plainly: self-cleavage, relative activity (ratio to wild type); higher = more cleavage; in vitro, sequencing. Summed up:
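After error-prone PCR and barcoding, CPEB3 ribozyme mutant libraries were transcribed with T7 RNA polymerase at 37°C for 5 hours, then given 15 min with DNase I before an EDTA stop, and they cleaved during both steps. Reverse transcription with template switching preceded Illumina sequencing. Relative activity divides a variant's cleaved/total read fraction by the unmutated ribozyme's. At least 5 reads were required per variant, and three batches were averaged.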
As for UAACUGGGGGCCACAGCAGAAGCGUUCACAUCGCAGCCCCUGUCAGACCCUGGUGAAUCUGCGAAUUCUGCUGUAUAUCUC, the self-cleavage amounted to 0.08.
UAACUGGGGGCCACAGCAGAAGCGUUCACGUCGCAGCCCCUGUCAGAUUCUGGCGAAUCGGCGAAUUCUGCUGUAUAUCUC: the self-cleavage was 0.34.
To UAACUGGGGGCCACAGCAGAAGCGUUCACUUCGCAGCCACCGUCAGAUUCUGGUGAAUCUGCGAAUUCUGCUGUAUACCUC belongs 0.24; to UAACUGGGGGCCACAGCAGAAGCGUACACGUCGCAGCCCCUGCCAGAUUCUGGUGAAUCUGCGAACUCUGCUGUAUAUCUC, 0.23.
Turning to UAACUGGGGGCCACAGCAGAAGCGCUCACGACGCAGCCCCUGUCAGAUCCUGGUGAAUCUGCGAAUUCCGCUGUAUAUCUC, the self-cleavage came out at 0.11.
The same measure for UAACUGGGGGCCACAGCAGAAGCGCUCACGUCGCAGCCCCUAUCAGAUUCUGGUGAAUCUGCGAAUUCUGCUGUAUAUCUC: 0.15; for UAACUGGGGGCCACAGCAGAAGCGCUCACGUCCCAGCCCCUGUCAGAUUCUGGUGAAUCUGCGAAUUCUGCCGUAUAUCUC: 0.06; for UAACUGGGGGCCACAGCAGAAGCGUUCACGUCGCAGCCCCCGUCAGAUUCUGGUGAAUCUGCGGAUUCUGCUAUAUAUCUC: 1.29.
With UAACUGGGGGCCACAGCAGAAGCGCUCACGACGCAGCCCCUGUCUGAUCCUGGUGAAUCUGCGAAUUCCGCAGUAUAUCUC, the self-cleavage stood at 0.08.
The same measure for UAACUGGGGGCCACAGCAGAAGCGUUCACGUCGCAGCCCCUGACAGAUUCUGGCGAAUCUGCGAAUUCUGCUGUAUAUCCC: 1.18; for UAACUGGGGGCCACAGCAGAAGCGUCCACGCCGCAGCCCCCGUCAGAUCCUGGUGAAUCUGCGAAUUCUGCUGUAUACCUC: 0.08; for UAACUGGGGGCCACAGCAGAAGCGUUCACGUCGCAGCCCCUGUCAGAUUCUGGUGAAUCUGCGAAUUCUCCUGUAUACCCC: 0.35.
The same measure for UAACUGGGGGCCACAGCAGAAGCGUUCACGUCGCAGCCCCUGUCAGAUUCCGGUGGAUCUGCGAAUUCGGCUGUAUAUCUC: 0.4; for UAACUGGGGGCCACAGCAGAAGCGUUCACGUCGCAGCCCCUGACGGAUUCUGGUGAAUCUGCGGAUUCCGCUGUAUAUCUC: 0.26; for UAACUGGGGGCCACAGCAGAAGCGUUCACGCCGCAGCCCCUGUCAGAUUCUGGUGAAUCUGCGAAUUCUGUUGUAUAUCUC: 0.31.
The same measure for UAACUGGGGGCCACAGCAGAAGCGUUCACGUCGCAGCCCCUGUCAGAUUCCGGUGAAUCUGCGAAUUCCGCUGAAUAUCUC: 0.81; for UAACUGGGGGCCACAGCAGAAGCGCUCACGUCGCAGCCCCUGUCAGAUUCUGGUGAAUCUGCGAAUUCUGCUGUAUAUCAC: 0.14; for UAACUGGGGGCCACAGCAGAAGCGUUCACGUCGCAGCCCCUGUCAGAUUCGGGUGAACCUGCGAAUUCUGCUGUAUAUCUC: 0.57.
Consider UAACUGGGGGCCACAGCAGAAACGCACACGUCGCAGCCCCUGUCAGAUUCUGGUGAAUCUGCGAAUUCUGCUGUAUAUCUC, for which the self-cleavage was determined as 0.44.
Regarding UAACUGGGGGCCACAGCAGAAGCGUUCACGUCACAGCCCCUGUCAGAUUCGGGUGAAUCCGGGAAUUCUGCCGUAUAUCUC, the self-cleavage turned out to be 0.2.
The same measure for UAACUGGGGGCCACAGCAGAAGCGUUCACGCCGCAGCCCCUGUCAGAUUCUGGUGAACCUGCGAAUUCUGCUGUAUAUCUC: 0.5; for UAACUGGGGGCCACAGCAGAAGCGUUCACGACGCAGCCCCUGACAGAUUCUGGUGAAUCUGCGAAUUCUGCUGUAUAUCUC: 0.6.
To UAACUGGGGGCCACAGCAGAAGCGUUCACGUCGCAGCCCCAGUCAGAUUCUGGUGUACCUGCGGAUUCUGCUGUAUAUCUC belongs 0.15.
UAACUGGGGGCCACAGCAGAAGCGUUCACGCCGCAGCCCCUAUCAGAUACUGGUGAAUCUGCGAAUUCUGCUGUAUAUCUC: the self-cleavage is 0.45.
Consider UAACUGGGGGCCACAGCAGAAGCGCUCACGUCGCAGCCCCAGUCUGAUUCUGGAGAAUCUGCGGAUCCUGCUGUAUAUCUC, for which the self-cleavage came out at 0.18.
The same measure for UAACUGGGGGCCACAGCAGAAGCGCUCACGUCGCAGCCCCUGUCAGAUUCUGGUGAAUCUGCGAAUCCUGCUGUAUAUCUC: 0.3.
Turning to UAACUGGGGGCCACAGCAGAAGCGUUCACGUCGCAGCCCCCGUCAGAUUCUGGUGGAUCUGCGAAUUCUGCUGUAUAUCUC, the self-cleavage is 0.66.
The same measure for UAACUGGGGGCCACAGCAGAAGCGUCCUCGUCGCGGCCCCUGUCAGAUUCUGGUGAAUCUGCGAAUUAUGCUGUAUAUCUC: 0.7.
To UAACUGGGGGCCACAGCAGAAGCGUCCACGUCGCGGCCUCUGUCAGAUUCUGGUGAAUCUGCGGAUUCUGCCGUAUGUCUC belongs 0.6.
The same measure for UAACUGGGGGCCACAGCAGAAACGUUCACGUCGCAGCCCCUGUCAGAUUCCGGUGAAUCUGCGAAUUCUGCUUUAUAUCUC: 0.35; for UAACUGGGGGCCACAGCAGAAGCGUUCACGUCGCAGCCCCAGUCAGAUUCCGGUGAAUCUGGGAACUCUGCUAUAUAUCUC: 0.03; for UAACUGGGGGCCACAGCAGAAGCGUUCACGUCGCAGCCCCUGUCAGAUUCUGCUGAAUCUCCGAAUUCAGCUGUAUAUCUC: 0.26.
Take UAACUGGGGGCCACAGCAGAAGCGUUCACAUCGCAGCCCCUGUCAGAUACUGGUGAAUCUGCGAAUUCUGCUGUACGUCUC: the self-cleavage was determined as 0.33.
Consider UAACUGGGGGCCACAGCAGAAGCGUUCACGUCGCAGCCCCUGUCAGAUUCAGGUGAAUCUGCGAGUUCUGCUGUAUAUCUC, for which the self-cleavage came to 0.38.
Take UAACUGGGGGCCACAGCAGAAGCGUUCACGCCGCAGCACCUGUCAGAUUCUGGUGAAUCUGCGAAUUCUGCUGUAUAUCUC: the self-cleavage worked out at 0.37.
To UAACUGGGGGCCACAGCAGAAGCGUUCACGCCGCAGCCCCUGUCAGAUUCUGGCGAAUCUGCGAAUUCUGCUGUAUAUCUC belongs 0.94.
Consider UAACUGGGGGCCACAGCAUAAGCGUUCACGUCGCAGCCCCUGUCAGAUUCUGGUGAAUCUGCGAAUUCCGCUGUAUAUCUC, for which the self-cleavage worked out at 0.19.
The same measure for UAACUGGGGGCCACAGCAGAAGCGUUCACGUCGCAGCCCCUGUCAGAUUCGGGUGUGUCUGCGAAUUCUGCUGUAUAACUC: 0.38; for UAACUGGGGGCCACAGCAGAAGCGUUCACGUCGCAGCCCCUGUCAGAUUCAGGUGAAUAUGCGAAUUCUGCUGUAUAUCUC: 0.26; for UAACUGGGGGCCACAGCAGAAGCGUCCACGUCGCGGCCCCUGUCAGAUUCUGGGGAAUCCGCGUAUACUGCUGUAUAUCUC: 0.21.
The same measure for UAACUGGGGGCCACAGCAGAAGCGUUCACGGCGCAGCCCCUGUCAGUUUCUGGUGAAUCUGCGAGUUCUGCUGUAUAUCCC: 0.09; for UAACUGGGGGCCACAGCAGAAGCGUUCACGACGCAGCCCCUGUCUGAUACUGGUGAAUCUGCGAACUCUGCUGUAUAUCUC: 0.09; for UAACUGGGGGCCACAGCAGAAGCGUUCACGUCGCAGCCCCUGUCAGAUUCUUGUGUAACUGCGAAUUCUGCAGUAUAUCUC: 0.26.
On to UAACUGGGGGCCACAGCAGAAGCGUUCACGUCGCAGCCCCAGGCAGAUUCCGGUGAGACUGCGAAUUCUGCUGUAUCUCUC, for which the self-cleavage amounted to 0.07.
To UAACUGGGGGCCACAGCAGAAGCGUUCACGCCGCAGCCCCUGUCAGAUUCUGGUGAAUCUGCGAACUCUGCUGUAUAUCUC belongs 0.63; to UAACUGGGGGCCACAGCAGAAGCAUUCACGUCGCAGCCCCCGUCGGAUUCUGGUGAAACUGCGAAUUCUGCUGUAUAUCUC, 0.48; to UAACUGGGGGCCACAGCAGAAGCGUUCACGUCGCAGCCCCUGUCAGACUCUGGCGAAUCUGCGAAUUCUGCAGUAUAUCUC, 0.25.
The same measure for UAACUGGGGGCCACAGCAGAAGCGAUCACGUCGCAGCCCCUGUCGGAUUCUGGUGAAUCUGCGAAUUCUGCUGUAUAUCUC: 0.08; for UAACUGGGGGCCACAGCAGAAGCGUUCACGUCGCAUCCCCUGUCAGAUUCAGGAGAAUCUGCGGAUUCUGCUGUAUAUCUC: 0.14.
For UAACUGGGGGCCACAGCAGAAGCGCUCGCGUCGCAGCCCCUGUCAGAUUCUGGCGAAUCUGCGAAUCCUGCUGUAUAUCUC, the self-cleavage worked out at 0.11.
The same measure for UAACUGGGGGCCACAGCAGAAGCGUACACGUCGCAGCCCCUGUCAGAUUCUGGUAAAUCUGCGAAUUCUGCUGUAUAUCUC: 0.87; for UAACUGGGGGCCACAGCAGAAGCGUUCACGUCGCAGCCCCUGUCAGACUCUGGUGAGCCUGCGAAUUCUGCUGUAUAUCUC: 1.13; for UAACUGGGGGCCACAGCAGAAGCGUUCACGUCGCAGCCCCCGUCAGGUUCUGGUGAAUCUGCGAAUUCUGCUGUAUAUCUC: 0.99.
The same measure for UAACUGGGGGCCACAGCAGAAGCGUCCACGUCGCAGCCCCUGUCAGAUUCUGGUGAAUCUGCGAAUUCUGCUGUAUAUUUC: 0.81; for UAACUGGGGGCCACAGCAGAAGCGUUCACGUCGCAGCCCCUGACAGUUCCUGGUGAAUCUGCGGAUUCUGCUGUAUAUCUC: 0.31.
To UAACUGGGGGCCACAGCAGAACCGUUCACGUCGCAGCCCCUGACAGAUUCUGGUGAAUCUGCGAAUUCUGCUGUAUAUCUC belongs 0.28; to UAACUGGGGGCCACAGCAGAAGCGUUCACGCCGCAGCCCCUGUCAGAUUCUGGUGAAUCAGCGAAUUCCGCGGUAUAUCUC, 0.32; to UAACUGGGGGCCACAGCAGAAGCGUCCACGUCGCAGCCCCUGUCAGAAUCAGGUGAAUCUGCUAAUUCUGCUGUAUAUCUC, 0.14.
In the case of UAACUGGGGGCCACAGCAGAAGCGUCCACGUCGCAGCCCCCGUCAGAUUCAGGUGAAUUUGCGAACUCUGCUGUAUAUCUA, the self-cleavage stood at 0.11.
The same measure for UAACUGGGGGCCACAGCAGAAGCGAUCACGUCGCGGCCCCUGUCAGAUUCUGGUGAAUCUGCGAAUUCUGCUGUAUAUCUC: 0.46; for UAACUGGGGGCCACAGCAGAAGCGUUCACGUCGCAGCCCCUGUCAGAUUCUGAUGGAUCUGCGAAUUCUGCUGUAUAUCUC: 0.88.
As to UAACUGGGGGCCACAGCAGAAGCGUCCACGUCGCAGCCCCUGUCAGAUUCUGGUGAAUCUGCGAAUUCUGUUGCAUAUCUC, the self-cleavage turned out to be 0.41.
To UAACUGGGGGCCACAGCAGAAGCGUUCACGUCGCAGCCCCGGUCAGAUUCUGGUGAAUCUGCGAAUUCUGCUGUAUUUCUC belongs 0.36.
For UAACUGGGGGCCACAGCAGAAGCGUACACGUCGCUGCCCCUUCCAGAUUCUGGUGAAUCUGCGAAUUCUGCUGUAUAUCUC, the self-cleavage was 0.1.
To UAACUGGGGGCCACAGCAGAAGCGUUCACGUCGCAGCCCCUGUCAGACUCUGGUGAAUCUGCGAAUUCUGCUGUAUAACUC belongs 0.56; to UAACUGGGGGCCACAGCAGAAGCGUACACGUCGCAGCCCCUGUCAGAUUCUGGUGAAUCUGCGGGUUCUGCUGUAUGACUC, 0.13; to UAACUGGGGGCCACAGCAGAAGCGUUCACGUCGCAGCCCCAGUCAGAUUCUGGUGAAUCAGCGAAUUCUGCUGUAUAUCUC, 0.24.
The same measure for UAACUGGGGGCCACAGCAGAAGCGCUCACGUCGCAGCCCCCGUCAGAUUCCGGUGAAUCUGCGAAUUCUGCUGUACACCUC: 0.15.

These data come from the RNAGym collection of RNA variant scans (doi:10.1093/nar/gkz1192).
